Out of some 340,000 compounds screened, about 12,000 (3.5%) were called active. This list was built around the results that the source calls inconclusive (neither active nor inactive); the mix of calls is not that of the screen. The call rests on the fitted dose curve; in most records, active means well fitted inhibition curve with a large enough effect; inconclusive means small, poorly fitted or top-dose-only effect, or another doubt; inactive means no such curve, though single readings can be large or run the other way. No potency is given beside an inconclusive call; the fits are too rough.
Experiment: qHTS Assay for Inhibitors of Hepatitis C Virus (HCV)
Details: Huh7.5.1 HCVcc-Cre (HCVcc is cell-culture hepatitis C virus) infection, luciferase reporter, 44 h; series mostly up to 41.8 µM
Method in brief: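 1,000 cells/well; 4 h culture; + compound; + HCVcc-Cre (~0.5 moi); 44 h; luciferase substrate, RT 15 min; read 15 sec.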
Potency means the concentration at half of the fitted maximal effect; tags describe the fitted curve by direction and shape.

| SMILES | Potency |
| --- | --- |
| O=C(c1ccc(Cl)c([N+](=O)[O-])c1)N1CCN(S(=O)(=O)c2ccc(Cl)cc2)CC1 | inactive |
| CCCCN(C)C(=O)C1CCC(CNS(=O)(=O)c2ccc3c(c2)CC(C)N3C(C)=O)CC1 (centres undefined) | inconclusive [inhibitor, full curve] |
| COC(=O)CN1C(CN2CCOCC2)=Nc2ccc(Br)cc2C1c1ccccc1 (centres undefined) | inactive |
| Cc1ccc(C(=O)CC(=O)COc2ccc(Cl)cc2C)cc1 | inconclusive [inhibitor, single point] |
| COC(=O)CCCNC(=O)c1ccc2oc(CCCc3ccccc3)nc2c1 | inconclusive [inhibitor, single point] |
| COc1ccc(CN2Cc3cnnn3-c3ccccc3C2C#N)cc1 (centres undefined) | active: 3.98 µM |
| CC/C(=N\NC(=O)C(N)=O)c1ccccc1O | inconclusive [inhibitor, single point] |
| N#C/C(=C\Nc1ccc2cn[nH]c2c1)c1nc(-c2ccccc2)cs1 | active: 0.891 µM |
| CCOC(=O)c1c(C)c(C(=O)N2CCN(c3cccc(Cl)c3)CC2)c(C)n1C | inconclusive [inhibitor, single point] |
| Clc1ccc(-c2cn3c(n2)CCC3)cc1 | inconclusive [inhibitor, partial curve, poor fit] |
| COc1c(N2CCN(C(=S)NCc3ccccc3)C(C)C2)c(F)cc2c(=O)c(C(=O)O)cn(C3CC3)c12 (centres undefined) | active: 10 µM |
| O=C(COC(=O)CNC(=O)c1cccc(OC(F)F)c1)NCc1ccc2c(c1)OCO2 | inconclusive [inhibitor, partial curve] |
| C=CCOC(=O)C1=C[C@H](c2coc3ccccc3c2=O)[C@@H](CCCO)[C@H](OCC)O1 | inactive |
| N=c1sccn1CC(=O)N1N=C(c2ccc(Cl)cc2)CC1c1ccco1 (centres undefined) | inconclusive [inhibitor, partial curve] |
| O=C(c1ccccc1)c1nn(-c2ccc(Cl)cc2)cc1C(=O)c1cc2ccccc2oc1=O | inconclusive [inhibitor, single point] |
| CC(C)OCCCNC(=O)CN1C(=O)CSc2ccc(S(=O)(=O)N3CCCCC3)cc21 | inactive |
| COc1ccc([N+](=O)[O-])cc1NCC(=O)Nc1cc(S(=O)(=O)N2CCCCC2)ccc1C | active: 11.2 µM |
| COCC1=C(C(=O)OC(C)OC(=O)OC(C)C)N2C(=O)[C@@H](NC(=O)/C(=N\OC)c3csc(N)n3)[C@H]2SC1 (some centres undefined) | inconclusive [inhibitor, full curve] |
| CN(C)C(=O)OCc1c(-c2ccccc2)ncc2ccccc12 | inconclusive [inhibitor, single point] |

— PubChem BioAssay AID651820 (National Center for Advancing Translational Sciences (NCATS), 2012)
